# This is one part of the list.
# B1: GS7807E-bfa-538-23-538 (Bacteroides fragilis) (protein)
# chain: TDSFESFNTNEAGFDNDSKKQDFNYYGIPLGIIQQGIYFNYDWGSGKNWPFQTMQNLGADLFSGYVHDFNPFNEGKNNSTYYMMDGWNGSTWDNTYGYIMPEVQKSETINEKDNIGFFGITKILKVELMHRLSDLYGPIVYTQFGSKTGSTPDTQQEAYKAFFNDLDTGIAKIREYQKANPDIESFAKFDILMPQGKRTFSEWIRFANSLRLRLAVRIAMADSKLAVAEAQKALTDEEGLLEGNDEVVAVSTSSGYTNPFGEINKAWGEVFMNANMESLLVGYEDPRMEKYFDKATGSDATSLIDYKGTYKGIRQGTGFSHKNYNGHSKSTITQQTDAVLMTPAEVWFLRAEAALRGWSSESVKDCYEKGVKASFAQWGAAGAEAYLESDRKPSDYVDAFKAANNVKAVNTLTPKWDDAAGNEDKLGRIITQKWLAMFPEGGEAWAEQRRTGYPRLFPVLVNQSEGTVDTNLGPRRLNFFVGIKTTNPEQYTQLVNALGGIDNCGTRLWWDTGRNF
# How the values were obtained:
# Assay in all cases: glycan array binding signal (z-score within array); higher = stronger binding
# Details in all cases: glycan notation: IUPAC condensed, linker removed
# [1] = target: GlcNAc(b1-3)Gal(b1-4)GlcNAc(b1-3)Gal(b1-4)GlcNAc(b1-3)GalNAc
# Procedure, shortened: (§1)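 The binding signal is a Z-score computed within each array and averaged over linkers. Arrays of the same protein sequence at different concentrations or buffers were also averaged together. Data originate from 3228 arrays in the Consortium for Functional Glycomics database, kept only where the protein sequence was available.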
# [2] = target: GlcNAc(b1-3)Gal(b1-4)GlcNAc(b1-3)GalNAc
# Procedure, shortened: as §1
# [3] = target: GlcNAc(b1-3)Gal(b1-4)GlcNAc(b1-3)[GlcNAc(b1-3)Gal(b1-4)GlcNAc(b1-3)]GalNAc
# Procedure, shortened: as §1
# [4] = target: GlcNAc(b1-3)Gal(b1-4)GlcNAc(b1-6)[Gal(b1-3)]GalNAc
# Procedure, shortened: as §1
# [5] = target: GlcNAc(b1-3)Gal(b1-4)GlcNAc(b1-6)[GlcNAc(b1-3)Gal(b1-3)]GalNAc
# Procedure, shortened: as §1
# [6] = target: GlcNAc(b1-3)Gal(b1-4)GlcNAc(b1-6)[GlcNAc(b1-3)]Gal(b1-4)GlcNAc
# Procedure, shortened: as §1
# GlcNAc(b1-3)GalNAc = target: GlcNAc(b1-3)GalNAc
# Procedure, shortened: as §1
# GlcNAc(b1-3)Man = target: GlcNAc(b1-3)Man
# Procedure, shortened: as §1
# [7] = target: GlcNAc(b1-3)[GlcNAc(b1-4)][GlcNAc(b1-6)]GlcNAc
# Procedure, shortened: as §1
# [8] = target: GlcNAc(b1-3)[GlcNAc(b1-6)]Gal(b1-4)GlcNAc
# Procedure, shortened: as §1
# [9] = target: GlcNAc(b1-3)[GlcNAc(b1-6)]GalNAc
# Procedure, shortened: as §1
# [10] = target: GlcNAc(b1-4)Gal(b1-4)GlcNAc
# Procedure, shortened: as §1
# GlcNAc(b1-4)GlcNAc = target: GlcNAc(b1-4)GlcNAc
# Procedure, shortened: as §1
# [11] = target: GlcNAc(b1-4)GlcNAc(b1-4)GlcNAc
# Procedure, shortened: as §1
# [12] = target: GlcNAc(b1-4)GlcNAc(b1-4)GlcNAc(b1-4)GlcNAc(b1-4)GlcNAc
# Procedure, shortened: as §1
# [13] = target: GlcNAc(b1-4)GlcNAc(b1-4)GlcNAc(b1-4)GlcNAc(b1-4)GlcNAc(b1-4)GlcNAc
# Procedure, shortened: as §1
# [14] = target: GlcNAc(b1-4)[GlcNAc(b1-6)]GalNAc
# Procedure, shortened: as §1
# [15] = target: GlcNAc(b1-6)Gal(b1-4)GlcNAc
# Procedure, shortened: as §1
# GlcNAc(b1-6)GalNAc = target: GlcNAc(b1-6)GalNAc
# Procedure, shortened: as §1
# [16] = target: GlcNAc6S(b1-3)Gal(b1-4)GlcNAc
# Procedure, shortened: as §1
# Kdn(a2-3)Gal(b1-3)GalNAc = target: Kdn(a2-3)Gal(b1-3)GalNAc
# Procedure, shortened: as §1
# Kdn(a2-3)Gal(b1-3)GlcNAc = target: Kdn(a2-3)Gal(b1-3)GlcNAc
# Procedure, shortened: as §1
# Kdn(a2-3)Gal(b1-4)Glc = target: Kdn(a2-3)Gal(b1-4)Glc
# Procedure, shortened: as §1
# Kdn(a2-3)Gal(b1-4)GlcNAc = target: Kdn(a2-3)Gal(b1-4)GlcNAc
# Procedure, shortened: as §1
# [17] = target: Kdn(a2-3)Gal(b1-4)[Fuc(a1-3)]GlcNAc
# Procedure, shortened: as §1
# Kdn(a2-6)Gal(b1-4)GlcNAc = target: Kdn(a2-6)Gal(b1-4)GlcNAc
# Procedure, shortened: as §1
# [18] = target: Man(a1-2)Man(a1-2)Man(a1-3)Man
# Procedure, shortened: as §1
# [19] = target: Man(a1-2)Man(a1-2)Man(a1-6)[Man(a1-3)]Man
# Procedure, shortened: as §1
# Man(a1-2)Man(a1-3)Man = target: Man(a1-2)Man(a1-3)Man
# Procedure, shortened: as §1
# [20] = target: Man(a1-2)Man(a1-3)[Man(a1-2)Man(a1-6)]Man
# Procedure, shortened: as §1
# [21] = target: Man(a1-2)Man(a1-3)[Man(a1-2)Man(a1-6)]Man(a1-6)[Man(a1-2)Man(a1-2)Man(a1-3)]Man
# Procedure, shortened: as §1
# [22] = target: Man(a1-2)Man(a1-3)[Man(a1-2)Man(a1-6)]Man(a1-6)[Man(a1-2)Man(a1-2)Man(a1-3)]Man(b1-4)GlcNAc(b1-4)GlcNAc
# Procedure, shortened: as §1
# [23] = target: Man(a1-2)Man(a1-3)[Man(a1-6)]Man(a1-6)[Man(a1-2)Man(a1-3)]Man(b1-4)GlcNAc(b1-4)GlcNAc
# Procedure, shortened: as §1
# [24] = target: Man(a1-2)Man(a1-6)[Man(a1-3)]Man(a1-6)[Man(a1-2)Man(a1-2)Man(a1-3)]Man
# Procedure, shortened: as §1
# [25] = target: Man(a1-2)Man(a1-6)[Man(a1-3)]Man(a1-6)[Man(a1-2)Man(a1-2)Man(a1-3)]Man(b1-4)GlcNAc(b1-4)GlcNAc
# Procedure, shortened: as §1
# Man(a1-3)[Man(a1-6)]Man = target: Man(a1-3)[Man(a1-6)]Man
# Procedure, shortened: as §1
# [26] = target: Man(a1-3)[Man(a1-6)]Man(a1-6)[Man(a1-2)Man(a1-3)]Man(b1-4)GlcNAc(b1-4)GlcNAc
# Procedure, shortened: as §1
binder,measurement,setting,value
B1,glycan array binding signal (z-score),[1],-0.689
same,glycan array binding signal (z-score),[2],-0.644
same,glycan array binding signal (z-score),[3],0.752
same,glycan array binding signal (z-score),[4],-0.669
same,glycan array binding signal (z-score),[5],-0.354
same,glycan array binding signal (z-score),[6],-0.684
same,glycan array binding signal (z-score),GlcNAc(b1-3)GalNAc,-0.476
same,glycan array binding signal (z-score),GlcNAc(b1-3)Man,-0.645
same,glycan array binding signal (z-score),[7],-0.249
same,glycan array binding signal (z-score),[8],-0.656
same,glycan array binding signal (z-score),[9],-0.6
same,glycan array binding signal (z-score),[10],-0.677
same,glycan array binding signal (z-score),GlcNAc(b1-4)GlcNAc,-0.651
same,glycan array binding signal (z-score),[11],-0.68
same,glycan array binding signal (z-score),[12],-0.676
same,glycan array binding signal (z-score),[13],-0.544
same,glycan array binding signal (z-score),[14],-0.662
same,glycan array binding signal (z-score),[15],2.02
same,glycan array binding signal (z-score),GlcNAc(b1-6)GalNAc,1.4
same,glycan array binding signal (z-score),[16],3.84
same,glycan array binding signal (z-score),Kdn(a2-3)Gal(b1-3)GalNAc,-0.018
same,glycan array binding signal (z-score),Kdn(a2-3)Gal(b1-3)GlcNAc,2.05
same,glycan array binding signal (z-score),Kdn(a2-3)Gal(b1-4)Glc,-0.064
same,glycan array binding signal (z-score),Kdn(a2-3)Gal(b1-4)GlcNAc,-0.276
same,glycan array binding signal (z-score),[17],0.59
same,glycan array binding signal (z-score),Kdn(a2-6)Gal(b1-4)GlcNAc,-0.638
same,glycan array binding signal (z-score),[18],-0.684
same,glycan array binding signal (z-score),[19],-0.683
same,glycan array binding signal (z-score),Man(a1-2)Man(a1-3)Man,-0.657
same,glycan array binding signal (z-score),[20],-0.699
same,glycan array binding signal (z-score),[21],-0.657
same,glycan array binding signal (z-score),[22],0.743
same,glycan array binding signal (z-score),[23],-0.615
same,glycan array binding signal (z-score),[24],-0.621
same,glycan array binding signal (z-score),[25],0.304
same,glycan array binding signal (z-score),Man(a1-3)[Man(a1-6)]Man,-0.621
same,glycan array binding signal (z-score),[26],-0.332

# Source: the supplement of paper PMC8728848
